Data as given in article PMC10539329, “NLRP6 potentiates PI3K/AKT signalling by promoting autophagic degradation of p85α to drive tumorigenesis” (Nature Communications, 2023).
Results are given in words; binding and its absence hold for the method and conditions named. For some assays here: In cells and extracts the contact can be indirect. Some binding calls cover weakened binding; strength is not graded here. For some assays here: Sequences can lack the tags named with a protein.

Sequences of proteins named here, by UniProt entry; tags and fusion partners are left off. A change or cut given only in a name is not applied to a line headed by its entry.
UniProt P27986: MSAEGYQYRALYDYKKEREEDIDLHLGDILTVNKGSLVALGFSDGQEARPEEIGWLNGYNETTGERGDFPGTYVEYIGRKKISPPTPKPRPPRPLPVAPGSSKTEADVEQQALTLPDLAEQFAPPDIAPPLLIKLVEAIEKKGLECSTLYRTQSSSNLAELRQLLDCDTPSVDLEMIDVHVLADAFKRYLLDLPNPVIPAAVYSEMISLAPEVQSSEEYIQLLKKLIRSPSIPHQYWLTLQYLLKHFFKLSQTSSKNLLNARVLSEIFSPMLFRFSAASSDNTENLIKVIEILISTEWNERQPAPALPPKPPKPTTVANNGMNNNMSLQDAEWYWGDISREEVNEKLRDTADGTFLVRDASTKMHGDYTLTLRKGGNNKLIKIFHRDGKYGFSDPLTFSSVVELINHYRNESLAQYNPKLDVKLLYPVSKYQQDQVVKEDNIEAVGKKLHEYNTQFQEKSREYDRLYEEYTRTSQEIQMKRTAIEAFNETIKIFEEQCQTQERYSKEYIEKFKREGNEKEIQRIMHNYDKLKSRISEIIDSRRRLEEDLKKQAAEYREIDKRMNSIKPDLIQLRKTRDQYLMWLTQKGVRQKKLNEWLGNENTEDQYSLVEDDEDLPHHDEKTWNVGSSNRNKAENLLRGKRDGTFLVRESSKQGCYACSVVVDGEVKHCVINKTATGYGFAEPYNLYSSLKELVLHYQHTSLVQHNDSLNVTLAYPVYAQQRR
UniProt Q96CV9: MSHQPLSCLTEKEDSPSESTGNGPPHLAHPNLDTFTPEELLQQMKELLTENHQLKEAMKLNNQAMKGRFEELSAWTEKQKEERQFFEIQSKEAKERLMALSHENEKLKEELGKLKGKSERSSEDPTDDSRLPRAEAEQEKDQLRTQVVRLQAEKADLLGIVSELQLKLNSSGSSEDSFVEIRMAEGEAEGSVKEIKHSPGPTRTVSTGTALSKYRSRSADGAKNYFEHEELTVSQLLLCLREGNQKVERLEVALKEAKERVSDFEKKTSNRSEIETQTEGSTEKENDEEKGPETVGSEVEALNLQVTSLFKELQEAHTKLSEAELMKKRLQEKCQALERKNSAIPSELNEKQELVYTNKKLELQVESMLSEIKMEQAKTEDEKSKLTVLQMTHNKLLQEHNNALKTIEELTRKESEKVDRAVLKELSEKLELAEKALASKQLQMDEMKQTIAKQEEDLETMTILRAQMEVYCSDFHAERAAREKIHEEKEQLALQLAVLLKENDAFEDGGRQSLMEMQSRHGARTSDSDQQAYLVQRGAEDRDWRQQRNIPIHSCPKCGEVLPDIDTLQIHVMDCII
UniProt P63208: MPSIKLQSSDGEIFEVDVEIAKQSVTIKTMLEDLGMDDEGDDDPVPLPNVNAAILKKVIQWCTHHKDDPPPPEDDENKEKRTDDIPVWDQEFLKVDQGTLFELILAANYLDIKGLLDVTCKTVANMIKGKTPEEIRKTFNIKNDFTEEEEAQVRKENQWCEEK

Experiments:
HA-p85α (K245R) (human) = HA-p85α (K245R) (human) (UniProt P27986); assay: co-IP; HEK293T cells transfected with tagged plasmids; cell lysates
HA-p85α (K256R) (human) = HA-p85α (K256R) (human) (UniProt P27986); assay: as above
HA-p85α (WT) (human) [1] = biological target: HA-p85α (WT) (human) (UniProt P27986); assay: as above
HA-p85α (WT) (human) [2] = biological target: HA-p85α (WT) (human) (UniProt P27986); assay: co-IP; LN229 cells transfected with tagged plasmids; cell lysates; Fig. 3d in the presence of BafA1 (0.2 μM)
HA-p85α (WT) (human) [3] = biological target: HA-p85α (WT) (human) (UniProt P27986); assay: co-IP; RBX1 knockout (KO) LN229 cells transfected with indicated plasmids; cell extracts
[4] = biological target: T1, purified recombinant His-NLRP6 (human) (UniProt P59044); assay: co-IP; purified His-NLRP6 with purified GST-p85α (WT or K245R), in vitro; both purified
T1 sequence: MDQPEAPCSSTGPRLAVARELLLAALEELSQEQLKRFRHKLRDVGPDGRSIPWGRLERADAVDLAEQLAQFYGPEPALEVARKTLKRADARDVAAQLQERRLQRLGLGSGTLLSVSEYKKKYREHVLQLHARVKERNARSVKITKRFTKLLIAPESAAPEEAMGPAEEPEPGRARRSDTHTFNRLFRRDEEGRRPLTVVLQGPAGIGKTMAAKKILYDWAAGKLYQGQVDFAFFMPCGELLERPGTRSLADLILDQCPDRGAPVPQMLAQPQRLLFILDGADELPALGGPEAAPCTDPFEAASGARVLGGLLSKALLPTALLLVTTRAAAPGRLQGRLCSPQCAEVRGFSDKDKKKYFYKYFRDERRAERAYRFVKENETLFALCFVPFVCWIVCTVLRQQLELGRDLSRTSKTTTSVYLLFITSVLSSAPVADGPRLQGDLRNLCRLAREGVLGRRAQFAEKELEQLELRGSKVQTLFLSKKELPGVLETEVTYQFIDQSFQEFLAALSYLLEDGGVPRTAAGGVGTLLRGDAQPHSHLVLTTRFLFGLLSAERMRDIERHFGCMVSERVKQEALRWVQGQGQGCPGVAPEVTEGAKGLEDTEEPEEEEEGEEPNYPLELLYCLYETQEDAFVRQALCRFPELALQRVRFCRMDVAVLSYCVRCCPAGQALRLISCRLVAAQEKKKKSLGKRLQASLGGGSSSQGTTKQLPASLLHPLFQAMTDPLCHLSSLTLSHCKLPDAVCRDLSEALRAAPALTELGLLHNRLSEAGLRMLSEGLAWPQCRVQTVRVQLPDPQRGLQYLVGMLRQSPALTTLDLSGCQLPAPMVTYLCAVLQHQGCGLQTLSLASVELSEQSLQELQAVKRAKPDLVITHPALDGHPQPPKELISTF

Myc-NLRP6 (human) [5] = biological target: T2, Myc-NLRP6 (human) (UniProt P59044); assay: co-IP; LN229 cells transfected with tagged plasmids; cell lysates; Fig. 3d in the presence of BafA1 (0.2 μM)
T2 sequence: T1 sequence

[6] = biological target: T3, NLRP6 NOD domain (amino acids 104–726), Flag-tagged deletion construct (human) (UniProt P59044); assay: co-IP; HEK293T cells transfected with tagged plasmids; cell lysates
T3 sequence: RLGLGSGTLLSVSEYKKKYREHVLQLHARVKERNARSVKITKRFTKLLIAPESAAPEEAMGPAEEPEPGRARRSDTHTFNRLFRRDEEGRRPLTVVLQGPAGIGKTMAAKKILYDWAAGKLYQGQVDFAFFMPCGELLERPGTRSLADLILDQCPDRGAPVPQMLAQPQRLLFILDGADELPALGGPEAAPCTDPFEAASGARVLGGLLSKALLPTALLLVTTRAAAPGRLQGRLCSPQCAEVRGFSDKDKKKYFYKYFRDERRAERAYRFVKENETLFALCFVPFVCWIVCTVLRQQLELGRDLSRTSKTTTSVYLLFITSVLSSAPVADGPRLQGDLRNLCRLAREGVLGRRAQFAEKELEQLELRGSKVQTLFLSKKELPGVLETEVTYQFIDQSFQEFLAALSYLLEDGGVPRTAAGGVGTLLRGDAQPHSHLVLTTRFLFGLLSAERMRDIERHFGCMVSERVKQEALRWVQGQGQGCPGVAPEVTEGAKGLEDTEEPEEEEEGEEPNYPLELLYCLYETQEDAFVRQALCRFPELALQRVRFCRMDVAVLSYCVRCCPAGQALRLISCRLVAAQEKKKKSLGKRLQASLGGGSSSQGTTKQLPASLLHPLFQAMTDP

Flag-NLRP6 (human) = biological target: T4, Flag-NLRP6 (human) (UniProt P59044); assay: as above
T4 sequence: T1 sequence

[7] = biological target: T5, NLRP6 (transfected, tag not stated) (human) (UniProt P59044); assay: as above
T5 sequence: T1 sequence

[8] = biological target: endogenous p85α (human (endogenous in LN229)) (UniProt P27986); assay: co-IP; NLRP6 knockout (KO) LN229 cells; cell lysates
[9] = biological target: endogenous p85α (human (endogenous in LN229)) (UniProt P27986); assay: co-IP; endogenous proteins in LN229 cell lysates; lysate with the indicated antibody at 4 °C overnight, Protein A/G beads 2 h; control cells of the NLRP6 KO comparisons included
Myc-NLRP6 (human) [10] = biological target: T2, Myc-NLRP6 (human); assay: co-IP; HEK293T cells transfected with tagged plasmids; cell lysates
[11] = biological target: T6, endogenous NLRP6 (human (endogenous in LN229)) (UniProt P59044); assay: co-IP; endogenous proteins in LN229 cell lysates; lysate with the indicated antibody at 4 °C overnight, Protein A/G beads 2 h; control cells of the NLRP6 KO comparisons included
T6 sequence: T1 sequence

For “Flag-tagged wild type (WT) OPTN (from UniProt Q96CV9 1-577)”, the binding (HA-p85α (K245R) (human)) was “no binding”, the binding (HA-p85α (K256R) (human)) was “no binding” and the binding (HA-p85α (WT) (human) [1]) was “binds”. For the same substance, the binding (HA-p85α (WT) (human) [2]) was “binds” and the binding (HA-p85α (WT) (human) [3]) was “no binding (condition: in RBX1 KO LN229 cells)”.

“GST-p85α (K245R) (from UniProt P27986 1-724)” was tested, and the binding [4] was “no binding”.

With “HA-p85α (K245R) (from UniProt P27986 1-724)” the binding (Myc-NLRP6 (human) [5]) was “no binding”.

“HA-p85α (K256R) (from UniProt P27986 1-724)” was tested, and the binding (Myc-NLRP6 (human) [5]) was “binds”.

With “HA-p85α (WT) (from UniProt P27986 1-724)” the binding [6] was “binds”, the binding (Flag-NLRP6 (human)) was “binds” and the binding [7] was “binds”. The binding (Myc-NLRP6 (human) [5]) was “binds”.

With “OPTN in LN229 cells (from UniProt Q96CV9 1-577)” the binding [8] was “no binding (condition: in NLRP6 KO LN229 cells)” and the binding [9] was “binds”.

“SKP1 (transfected) (from UniProt P63208 1-163)” was tested, and the binding (Myc-NLRP6 (human) [10]) was “no binding”.

With “endogenous p85α (from UniProt P27986 1-724)” the binding [11] was “binds”.

“p85α SR domain (amino acids 1–301) (from UniProt P27986 1-301) (domain or fragment)” was tested, and the binding [7] was “binds”.
